According to the supplement of paper PMC11417369:
± gives the standard deviation of the averaged measurements. The list shows a part of the results.

Test system: PfAP2-EXP AP2 domain (GST-tagged)
Test: gcPBM binding intensity (ln(normalized median fluorescence intensity)); higher = stronger DNA binding
Procedure, shortened: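 The binding buffer was 1× PBS containing 1% milk, 0.2 mg/ml BSA, 0.5% salmon testes DNA and 0.03% Triton X-100. In it, GST-tagged P. falciparum DNA-binding domains expressed in E. coli were applied for 1 h to an Agilent 4 × 180k array of primer-extended double-stranded 36-bp intergenic genomic probes plus negative controls. Binding intensity, read with Alexa488 anti-GST antibody and a 488 nm scan, is the highest Masliner-normalised natural-log median intensity across replicate spots of either probe orientation.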

| Sequence | gcPBM binding intensity (ln) |
| --- | --- |
| TATATATATATATATTGTACATTTTTTTTTTTTTTT [XGTACX_site7891] | 10.1 ± 0.23 |
| AAAAAAAAAAAAAGCACACACACATATGAGTATATA [CACACA_site4682] | 8.54 ± 0.33 |
| AATTTCAAATTGTATGTGCACATGTAGAAGTACTTT | 9.31 ± 0.27 |
| GTGCCTTTAAAAAAAAGTACAAAAAAGAACGAATTA [XGTACX_site3714] | 8.93 ± 0.14 |
| TATGTAAAGAGTAAGGGTACATGTATAATACGGCTC [XGTACX_site1283] | 9.3 ± 0.56 |
| TTTTCATTAAATATATATGCATACCATATGTACATT [GTGCAC_negctrl_site539] | 8.68 ± 0.39 |
| TTTAAAATATTTTCTTGTACGAAGGAACATTTCTTA [XGTACX_site4013] | 8.5 ± 0.64 |
| AAATACTATATCAAGCGTACTTATTTCATGGTAATA [XGTACX_site7878] | 8.62 ± 0.3 |
| TAATAAAGTATTTTGCGTACTTATTTTATTCTTCTA [XGTACX_site2095] | 8.1 ± 0.085 |
| ATTGTGTGAACAAAATGTACATTTTCTCTACATTAA [XGTACX_site1333] | 8.46 ± 0.35 |
| TGGCATATATATAAATGTACTTTCTTTCTATCTGTT [XGTACX_site8483] | 8.59 ± 0.37 |
| GCCCCCAAATTATGTGTGCACTTTATATTCCTGAGA [GTGCAC_site9474] | 9.8 ± 0.2 |
| TTATATATATGTAATTGTACTTTTAATTTTTTTTTA [XGTACX_site4357] | 8.33 ± 0.44 |
| TATTTTATAATAGGCACACATATAAAAATATATATA [CACACA_site4127] | 8.29 ± 0.5 |
| TAATTTTTTTTAAATACACACTGAAATGTGAATTTT [CACACA_site4476] | 8.09 ± 0.35 |
| ATAAAAATAAAAGACGCATGTTCTTAAAATAAGAAC [TGCATGCA_site189] | 8.49 ± 0.49 |
| GTGTGATCTTTTGAAAGTACATTTTTTTTTTTTTTT [XGTACX_site6311] | 8.43 ± 0.22 |
| ATATATATATATAATGCACACATTATGAATTATGTA [CACACA_site3384] | 9.98 ± 0.26 |
| AAACAAAATGGTAACACACACATATATATATATATA [CACACA_site1939] | 10.1 ± 0.62 |
| AGGTCATACATAAAATGTACATATATATAAATATAT [XGTACX_site7147] | 8.55 ± 0.49 |
| TGAACACCCAAATACACACACTCAAAAAAAAAAAAG [CACACA_site5467] | 8.39 ± 0.53 |
| ACAAGAATACACCACGCACACACACTAGAGAAAAAA [CACACA_site9276] | 8.66 ± 0.53 |
| AATTAATTTATTTTATAAATAGTTAGATCGTCATAA [GTGCAC_negctrl_site660] | 8.27 ± 0.47 |
| ATTTCATTAAAGATTACATGCAATTCTATATTATTT [TGCATGCA_site260] | 8.79 ± 0.16 |
| AAAACACGCGGACACACACACACACGCCCACATATA [CACACA_site7105] | 8.94 ± 0.27 |
